# Reference: PMC6212790
# The list shows a part of the results. At the low end of the ranking the order means little.
# Molecular target: T1, GST-Rok-C97-191 (UniProt O34857)
# T1 sequence: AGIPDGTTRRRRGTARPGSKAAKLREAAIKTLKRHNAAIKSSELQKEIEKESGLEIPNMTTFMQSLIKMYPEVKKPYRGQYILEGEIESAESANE
# Assay: protein binding microarray;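 also: rank score from −0.5 (least bound) to 0.5 (best bound)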
# Conditions: Rok is a gene silencer of Bacillus subtilis; high values mean tight binding; most listed sequences are background and not binding sites; double strand, one strand shown
row,Sequence,binding signal
1,CAGTACTG,0.0988 E-score
2,TATCATCA,0.118 E-score
3,AATTGCAT,0.02 E-score
4,GGACGGAC,-0.309 E-score
5,AAGATATT,0.269 E-score
6,CTAATAAC,0.106 E-score
7,CCCTGCGA,-0.284 E-score
8,GATGGGCC,-0.279 E-score
9,ACAAGTTA,0.285 E-score
10,ACGGACTA,-0.0168 E-score
11,ACCTAAGT,0.0233 E-score
12,CGCTTCGA,-0.109 E-score
13,AATACCGT,0.303 E-score
14,ACCCTCAC,-0.16 E-score
15,GTTCTATA,0.273 E-score
16,AAATACCC,0.204 E-score
17,GGCGCCAA,-0.257 E-score
18,AATGTTTA,0.133 E-score
19,AGAAGCTC,-0.0476 E-score
20,GCATGGAA,-0.0693 E-score
21,CGTGCGGA,-0.018 E-score
22,GATTCGCA,-0.242 E-score
23,ATATACCC,0.127 E-score
24,CACCAGCA,-0.195 E-score
25,AAGGTCGT,0.0698 E-score

row,Sequence,binding signal
1,GAGGATGC,-0.154 E-score
2,CTTAAACA,-0.0155 E-score
3,CTGCTTTC,-0.266 E-score
4,ATCCGTTA,-0.00635 E-score
5,AAGAGGAC,-0.0193 E-score
6,CGCGGCGC,-0.232 E-score
7,TAGAACTA,0.368 E-score
8,ATCACTGA,0.0402 E-score
9,AACGAGCG,-0.164 E-score
10,CATCAATG,-0.125 E-score
11,CTCGATAC,0.0105 E-score
12,AAGTTAGA,0.0777 E-score
13,CGAAGATA,0.302 E-score
14,AACGCACC,-0.0778 E-score
15,ACGCAGTG,-0.141 E-score
16,ACACGTAT,0.0935 E-score
17,GAACCGAC,-0.0142 E-score
18,ATCGCGAC,-0.0187 E-score
19,GAAAACAA,0.0717 E-score
20,AGAACGAT,0.0213 E-score
21,AAACTGAC,0.0063 E-score
22,ATTCCAAA,0.0756 E-score
23,CAAATCGC,0.0245 E-score
24,CCTCGAAC,0.0111 E-score
25,ACTAGCAA,0.254 E-score

row,Sequence,binding signal
1,ATCAAACG,0.0383 E-score
2,CGCGCGAG,-0.0238 E-score
3,ACCTCGAG,-0.178 E-score
4,GATCGGCC,0.00658 E-score
5,AGTAGACT,0.185 E-score
6,ACTGAAAT,-0.176 E-score
7,TGGACTAA,0.0374 E-score
8,AACTCCCA,-0.0305 E-score
9,GCGGGCTA,-0.127 E-score
10,ATATGCAC,0.209 E-score
11,TAGGACCA,-0.171 E-score
12,ATCATGTA,0.208 E-score
13,GCATTACC,0.0553 E-score
14,GCGTATCC,-0.121 E-score
15,AAGTGTTG,0.0517 E-score
16,GTCAAACA,0.00615 E-score
17,AGACTACG,-0.0817 E-score
18,CGGTTAAA,0.087 E-score
19,ACCAGGGA,-0.213 E-score
20,AGAAAACC,-0.0485 E-score
21,AATTGATC,0.0578 E-score
22,ATCCCGTA,0.0373 E-score
23,ACAGAGGA,-0.0799 E-score
24,GCCAAAAA,-0.257 E-score
25,GGACACCA,-0.139 E-score

row,Sequence,binding signal
1,AACTCCGC,0.0252 E-score
2,GCTGCTAA,-0.106 E-score
3,CTTAGGAC,-0.127 E-score
4,GATTAACA,0.0584 E-score
5,GAAGTAGC,0.248 E-score
6,CTCTACAC,0.0535 E-score
7,AGTGGAAG,-0.0863 E-score
8,GTATCCGA,0.052 E-score
9,ACCTAGGC,-0.211 E-score
10,GGGGACCA,-0.308 E-score
11,CATGGAAC,-0.0493 E-score
12,AGAGATAA,0.113 E-score
13,TCCTAAAA,0.103 E-score
14,ATATGATC,0.182 E-score
15,CGAATAAC,0.0299 E-score
16,ACCATTCC,0.0866 E-score
17,GCATATGA,-0.0541 E-score
18,GCTCGTGA,-0.285 E-score
19,ACCGGCAA,0.0104 E-score
20,CACCGATA,0.152 E-score
21,ACGCGTCC,-0.127 E-score
22,ATAGCTCA,0.0879 E-score
23,AAGCGTGC,-0.247 E-score
24,GGGGGAAA,-0.0766 E-score
25,GTTGCGCA,-0.0627 E-score

row,Sequence,binding signal
1,ACTATCCC,0.13 E-score
2,ATCGCGGC,-0.0217 E-score
3,AAGGATCC,-0.114 E-score
4,AACGAAGT,-0.078 E-score
5,ACATTAAA,0.0634 E-score
6,CTTCAGGC,-0.0752 E-score
7,CTACTGAG,0.136 E-score
8,ATAACAAC,0.112 E-score
9,AGTGATTC,-0.111 E-score
10,ACGATATG,0.0576 E-score
11,ATCGCCAG,-0.0202 E-score
12,TGCCATAA,-0.0813 E-score
13,CCCGATCC,-0.147 E-score
14,AATCGCGG,-0.0191 E-score
15,CTCGATTA,0.12 E-score
16,AACAAATT,0.148 E-score
17,CCCCATAG,-0.0793 E-score
18,ACCGCTAG,0.14 E-score
19,AAATGATT,-0.118 E-score
20,ACCGGGCA,-0.187 E-score
21,AGAATGCT,-0.108 E-score
22,CGCGCAAA,0.0198 E-score
23,ATTCACTA,0.174 E-score
24,TATCGACA,0.184 E-score
25,ACAAGCTG,-0.259 E-score

row,Sequence,binding signal
1,AAATGATA,0.305 E-score
2,TAGCTGGA,-0.112 E-score
3,CCGGGGCC,-0.282 E-score
4,AAACCGAA,0.116 E-score
5,ATTCGTTG,0.195 E-score
6,ATCATGCC,-0.0351 E-score
7,GTAGCCTA,-0.023 E-score
8,GCCGGGAA,-0.249 E-score
9,ACTCGTTG,-0.039 E-score
10,ATTCTTGC,0.103 E-score
11,TAGCCCCA,-0.0287 E-score
12,AATCTCGA,0.0718 E-score
13,CCGCTGGA,-0.202 E-score
14,GGCAGGCA,-0.3 E-score
15,ATTACGGC,0.0217 E-score
16,GACCTCTC,-0.162 E-score
17,ACGAACAT,0.0324 E-score
18,GGCCTACC,-0.0395 E-score
19,GCCTGAGC,-0.202 E-score
20,CTTCGAAG,-0.084 E-score
21,CCTCAACG,-0.103 E-score
22,AGGTATCA,0.24 E-score
23,AGCAAAGA,0.00542 E-score
24,GTAGACCA,0.0221 E-score
25,GTAAACAC,0.113 E-score

row,Sequence,binding signal
1,ACCGATTA,0.214 E-score
2,ATGATTGC,0.0696 E-score
3,ATTCACCC,-0.0631 E-score
4,ATCTTCTA,0.26 E-score
5,ACCGGCGA,-0.16 E-score
6,GTGCCTCA,-0.186 E-score
7,GTAAGACA,0.0636 E-score
8,CCATTGGG,-0.0114 E-score
9,GTGGGATA,0.061 E-score
10,CTGAGTAA,0.0346 E-score
11,ACGAGGAA,-0.0591 E-score
12,CACAATAC,0.145 E-score
13,GTTGCAAA,-0.00796 E-score
14,CACTAGCA,-0.154 E-score
15,CGATCCGC,-0.0924 E-score
16,CATCACGG,-0.21 E-score
17,GCAGTTCA,-0.00198 E-score
18,AGACCGTA,-0.11 E-score
19,TCGTACCA,-0.0569 E-score
20,CGTCGACA,-0.00897 E-score
21,AACACTCT,0.0196 E-score
22,CCTCTTCC,-0.172 E-score
